According to PubChem BioAssay AID1159614 (National Center for Advancing Translational Sciences (NCATS), 2016):
In all, about 45,000 compounds went through this assay and about 65 (0.1%) were called active. Calls come from the whole dose curve; as a rule, active = well fitted activation curve with a large enough effect; inconclusive = small, poorly fitted or top-dose-only effect; inactive = no such curve, though single readings can be large or run the other way. The list shows a part of the results.

Target: Galactocerebrosidase (Homo sapiens) (UniProt P54803)
Chain of UniProt P54803 (P54803 whole entry, looked up): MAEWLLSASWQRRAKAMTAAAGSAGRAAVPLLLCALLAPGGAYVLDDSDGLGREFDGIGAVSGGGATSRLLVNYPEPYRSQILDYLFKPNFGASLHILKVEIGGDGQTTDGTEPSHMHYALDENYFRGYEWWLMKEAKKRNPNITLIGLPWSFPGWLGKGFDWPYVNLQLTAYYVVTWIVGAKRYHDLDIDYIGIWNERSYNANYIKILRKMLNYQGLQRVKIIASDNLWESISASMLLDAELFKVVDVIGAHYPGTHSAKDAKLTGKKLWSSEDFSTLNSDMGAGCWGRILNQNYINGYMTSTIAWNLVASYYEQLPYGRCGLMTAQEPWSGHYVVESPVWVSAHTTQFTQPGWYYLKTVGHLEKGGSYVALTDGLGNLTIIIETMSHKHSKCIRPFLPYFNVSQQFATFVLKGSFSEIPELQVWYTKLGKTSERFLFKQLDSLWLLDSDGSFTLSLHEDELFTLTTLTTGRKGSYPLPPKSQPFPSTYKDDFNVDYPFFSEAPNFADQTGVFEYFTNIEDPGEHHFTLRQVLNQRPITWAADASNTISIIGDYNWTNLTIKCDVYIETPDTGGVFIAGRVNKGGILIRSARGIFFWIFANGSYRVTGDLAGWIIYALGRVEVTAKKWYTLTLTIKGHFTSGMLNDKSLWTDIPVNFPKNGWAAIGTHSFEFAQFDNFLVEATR
Test: A Novel Cell-Based Assay to Identify Small Molecules for B -Galactocerebrosidase; note: 0% is about no effect; nearly all actives have a fitted effect of over 65% in size
Details: 145M-Twi-hGALC-G270D cells (Twitcher mouse brain line with human GALC G270D), HMU-beta-Gal fluorescence, 48 h; series mostly up to 57.5 µM; activation: at the top concentration
Procedure, shortened: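 Brain-derived Twitcher mouse 145M-Twi cells stably expressing human GALC-G270D or wild-type GALC, treated live, then residual GALC activity read by fluorescence of HMU-b-Gal substrate (0.1 mM final) in citrate-phosphate buffer pH 5.2 with sodium taurocholate. Signal increase indicates enhancement.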

activation, inactive:
O=c1c2oc3ccccc3c2n(Cc2ccc(Cl)cc2)c(=O)n1Cc1ccc2c(c1)OCO2 -0.426%
NC(=O)C1CCN(c2ncnc3c2cnn3-c2ccccc2)CC1 3.11%
COc1ccc(C)cc1NC(=O)C1CCCN(S(=O)(=O)c2ccc3c(c2)CCCN3C(C)=O)C1 (configuration not stated) -15.8%
CCC(C)NS(=O)(=O)c1ccc(N2CCCCS2(=O)=O)cc1 (configuration not stated) -15.9%
Cc1ccc(C(=O)Nc2ccc(C(=O)O)cc2)cc1S(=O)(=O)Nc1ccccc1 -15.5%
COc1cccc2c1cc1c(=O)n(CC(=O)N3CCCCC3)nc(C)n12 -7.11%
CCC(C)(C)NC(=O)C1CCC(CNS(=O)(=O)c2ccc3c(c2)CC(C)N3C(C)=O)CC1 (configuration not stated) -10.1%
Cc1ccc(Cl)cc1N1CCN(C2(c3ccccc3)C(=O)c3ccccc3C2=O)CC1 3.58%
COc1cccc(NC(=O)Cn2c(=O)n(-c3cccc(OC)c3)c(=O)c3sc4ccccc4c32)c1 0.565%
CCOCCCNC(=O)CN1C(=O)c2cccnc2Sc2ccccc21 -6.24%
CCCCNC(=O)CCCN1C(=O)CCn2nc(-c3cccn3C)cc21 -12.6%
CCC(CC)C(=O)Nc1nnc(SCc2cc(=O)c3ccccc3[nH]2)s1 7.43%
COCCNC(=O)CSc1nc2cc3c(cc2c(=O)n1CCCC(=O)NCCc1ccc(OC)c(OC)c1)OCO3 -12.4%
O=C(Cn1c(SCCOc2ccccc2Cl)nc2ccccc21)N1CCOCC1 14.3%
Fc1ccccc1N1CCN(c2nnc(C(F)(F)F)c3nnn(Cc4ccccc4)c23)CC1 6.65%
COc1ccc2c(CNCc3ccco3)c(C(=O)O)n(Cc3ccc(F)cc3Cl)c2c1 -19.7%
CN(C)S(=O)(=O)N(CC(=O)Nc1ccc(Br)cc1F)c1ccccc1 -9.18%
CCc1ccc(NC(=O)CSc2nc(-c3ccccc3)no2)cc1 -22.1%
COc1ccc(CCNc2ncnc3c2nnn3C)cc1OC -10.2%
Cc1ccc(-n2nc(C)c3c(C)cc(=O)n(CC(=O)Nc4ccc(C(C)C)cc4)c32)cc1 -10.4%
COc1ccc(NC(=O)c2c(NCc3cccs3)sc3c2CCCCC3)cc1 2.14%
CN(C1CCCCC1)S(=O)(=O)c1ccc(F)c(C(=O)Nc2ccc(C(F)(F)F)cc2)c1 -14.7%
Cc1c(C(=O)Nc2cccc(F)c2)sc2nc(-c3cc4ccccc4oc3=O)[nH]c(=O)c12 -14.4%
COc1cc(OC)cc(C(=O)NCCc2csc(-c3cccc(C)c3)n2)c1 -26.6%
CC1CCCCN1C(=O)c1ccc2c(c1)N(Cc1ccc(Cl)cc1)C(=O)c1ccccc1S2=O (configuration not stated) -14.8%
CCc1ccc(NC(=O)C(=O)NCCc2sc(-c3ccc(OC)c(OC)c3)nc2C)cc1 0.317%
CC(C)C(=O)NC1CC(=O)N(c2ccc3c(c2)OCCO3)C1 (configuration not stated) -1.86%
Cc1nnc(N2CCN(c3ccc(Cl)cc3)CC2)c2c1nnn2Cc1ccc(F)cc1 -23.8%
COc1ccccc1Cn1ccn(CC(=O)Nc2c(C)cc(C)cc2C)c(=O)c1=O 3.74%
COc1cccc(C(c2sc3nc(-c4ccco4)nn3c2O)N2CCCC2)c1 (configuration not stated) -6.31%
CCc1cccc(NC(=O)c2cc(-c3ccccc3)n[nH]2)c1 -4.64%
O=C(Nc1cccc(Cl)c1)C1CCN(c2nc3ccccc3nc2C(F)(F)F)CC1 -14.8%
CCOC(=O)c1[nH]c2ccccc2c1NC(=O)c1c(F)cccc1F -12%
O=C(NCc1ccccc1Cl)c1ccc2c(c1)N(Cc1ccccc1)C(=O)c1ccccc1S2 -2.68%
CCOC(=O)c1sc2ncn(CC(=O)Nc3cccc(C)c3)c(=O)c2c1C 2.62%
Cc1ccccc1Cn1c(=O)n(Cc2ccco2)c(=O)c2oc3ccccc3c21 -19.8%
O=C(c1ccc2c(c1)CCN2S(=O)(=O)c1ccc(Cl)cc1)N1CCN(c2ccccc2F)CC1 -34%
COc1ccc(Nc2ncc(C(=O)N3CCN(c4ccc(OC)cc4)CC3)c3ccccc23)cc1 -11.3%
CC(C)N(Cc1ccccc1)C(=O)c1cc2ccc3cccnc3c2[nH]1 -1.72%
CCOc1ccccc1N1CC(c2nc3ccccc3n2CCCOc2ccccc2)CC1=O (configuration not stated) -6.41%
CCOc1ccccc1C(N)=O -12.8%
CCOC(=O)C1CCN(C(=O)c2nn(-c3ccc(C)cc3)c(=O)c3c2c2ccccc2n3C)CC1 -11.2%
CCC(CC)C(=O)Nc1ccc(OCc2cc(=O)n3ccc(C)cc3n2)cc1 -23.1%
CN(C)c1ccc(CN2CCc3nc(N4CCN(c5ccccn5)CC4)ncc3C2)cc1 -14.4%
Cc1c(F)cccc1NS(=O)(=O)c1cccs1 -19.2%
Cc1nc2c(c(SCC(=O)Nc3ccccc3C(F)(F)F)n1)CCC2 -10.9%
Cc1cc(OC(C)C(=O)N2CCN(CCc3ccccn3)CC2)ccc1Cl (configuration not stated) -15.1%
Cc1ccc(-n2ncc3c(NCCO)ncnc32)cc1Cl -8.65%
COc1ccc(CNC(=O)Cc2ccc(NC(=O)N3CCSc4ncccc43)cc2)cc1OC -25.6%
Cc1cc(NC(=O)c2cc(-c3ccc(Cl)cc3)on2)n(-c2ccccc2)n1 -1.18%
CCOc1cccc(C2c3[nH]c4ccccc4c3CCN2C(=O)CSc2ccccc2)c1 (configuration not stated) -13.1%
Cc1cccc(C(=O)N2CCc3cc(CNC(=O)COc4ccc(Cl)cc4)ccc32)c1 -12.5%
COc1c(C)cc(Br)cc1C(=O)Nc1ccc(-c2nc3ncccc3o2)cc1 -13.8%
COc1cc(NC(=O)c2ccc3oc(=O)c(S(=O)(=O)c4ccccc4)cc3c2)cc(OC)c1 -14.5%
CCOc1ccc(NC(=O)Cn2c(=O)n(-c3cccc(Cl)c3)c(=O)c3c2c2cc(C)ccc2n3C)cc1 -9.81%
Cc1nc(SCC(=O)Nc2ccccc2C)cc(-c2ccccc2)n1 -14.5%
Cc1ccccc1NC(=O)CSc1cn(CC(=O)N2CCCCCC2)c2ccccc12 -10.1%
CCOc1ccccc1NC(=O)c1ccc2c(c1)CCN2S(=O)(=O)c1ccc(C)cc1 -16.6%
COc1cc2c(=O)c(C(=O)c3ccc(C)c(C)c3)cn(Cc3ccc(F)cc3)c2cc1OC -13.5%
CCOC(=O)c1c(C)[nH]c(C)c1S(=O)(=O)NCC(=O)Nc1ccc(C)c(N(C)C)c1 -16.2%
CCOc1cc(CNC(=O)Cn2c(=O)c3cccn3c3ccc(F)cc32)cc(OCC)c1OCC 6.62%
CCSc1nnc2c(n1)OC(c1cc(OC)c(OC)c(OC)c1)Nc1ccccc1-2 (configuration not stated) 7.22%
